Paper PMC4336329 (PLoS ONE, 2015)
The whole screen tested about 310,000 compounds, of which about 2,200 (0.71%) showed an effect of 50% or more. The effect is printed as a negative number. The list shows a part of the results.

What follows are compounds tested against human ether-à-go-go-related gene (hERG) potassium channel (human, UniProt Q12809) (assay: primary screen, population patch clamp on CHO cells stably expressing hERG).
human ether-à-go-go-related gene (hERG) potassium channel, sequence (Q12809 whole entry, looked up): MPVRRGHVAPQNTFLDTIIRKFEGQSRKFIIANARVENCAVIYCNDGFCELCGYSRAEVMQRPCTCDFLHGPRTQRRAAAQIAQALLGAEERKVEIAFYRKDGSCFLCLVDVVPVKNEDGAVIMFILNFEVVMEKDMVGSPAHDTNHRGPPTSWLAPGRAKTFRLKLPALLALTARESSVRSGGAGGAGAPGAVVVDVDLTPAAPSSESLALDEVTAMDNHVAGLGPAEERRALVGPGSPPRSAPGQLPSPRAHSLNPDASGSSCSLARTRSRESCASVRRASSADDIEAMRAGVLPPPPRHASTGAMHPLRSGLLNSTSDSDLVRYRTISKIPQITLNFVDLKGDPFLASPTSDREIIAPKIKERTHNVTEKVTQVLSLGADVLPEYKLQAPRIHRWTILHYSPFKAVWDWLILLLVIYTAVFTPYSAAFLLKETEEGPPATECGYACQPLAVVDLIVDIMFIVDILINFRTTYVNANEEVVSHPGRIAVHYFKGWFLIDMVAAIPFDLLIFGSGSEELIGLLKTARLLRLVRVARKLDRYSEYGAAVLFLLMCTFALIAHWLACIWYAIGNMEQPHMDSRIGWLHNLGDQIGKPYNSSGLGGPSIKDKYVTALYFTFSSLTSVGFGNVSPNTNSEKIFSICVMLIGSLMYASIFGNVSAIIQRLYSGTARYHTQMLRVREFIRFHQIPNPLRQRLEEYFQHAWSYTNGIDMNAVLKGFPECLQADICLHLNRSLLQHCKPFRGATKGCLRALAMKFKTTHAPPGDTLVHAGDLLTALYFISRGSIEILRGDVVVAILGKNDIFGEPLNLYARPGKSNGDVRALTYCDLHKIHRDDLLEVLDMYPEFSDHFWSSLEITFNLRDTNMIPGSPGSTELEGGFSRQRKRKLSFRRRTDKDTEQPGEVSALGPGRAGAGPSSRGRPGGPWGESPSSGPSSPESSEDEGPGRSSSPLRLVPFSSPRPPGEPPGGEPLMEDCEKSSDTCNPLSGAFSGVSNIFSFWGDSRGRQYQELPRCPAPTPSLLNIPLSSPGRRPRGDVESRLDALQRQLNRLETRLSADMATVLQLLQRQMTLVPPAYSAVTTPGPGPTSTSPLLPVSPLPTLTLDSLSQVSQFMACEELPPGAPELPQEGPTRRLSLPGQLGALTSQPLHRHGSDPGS

Row | SMILES | hERG current change (%, negative = inhibition) at 1uM
1 | Cn1nccc1C(=O)N1CCN(S(=O)(=O)c2ccc(Br)s2)CC1 | 16.6%
2 | N#Cc1nc(-c2ccco2)oc1NCc1cccnc1 | -2.68%
3 | COc1ccc(CCNS(=O)(=O)c2ccc3c(c2)CCN3C(=O)C2CC2)cc1OC | 6.72%
4 | COc1ccc(S(=O)(=O)Nc2ccc3ccccc3c2)cc1C | -1.72%
5 | Fc1ccccc1CSc1nnc(-c2cccs2)o1 | -1.02%
6 | COC(=O)c1cc(CC(=O)c2ccc(O)cc2O)c(C)o1 | 13.5%
7 | CCn1nc(C)cc1C(=O)N1CCc2c([nH]c3ccccc23)C1c1cc(F)ccc1F (centres unmarked) | 13.5%
8 | COC(=O)c1c(C)[nH]c(C(=O)COC(=O)c2c(C)noc2C)c1C | 14.6%
9 | Cc1ccc(S(=O)(=O)c2ncccc2[N+](=O)[O-])cc1 | -2.76%
10 | COc1ccc(Nc2nc(C)cc(C)c2C#N)cc1 | 9.8%
11 | CNC(=S)N1N=C(c2ccc(C)cc2)CC1c1cc(OC)ccc1OC (centres unmarked) | 11.6%
12 | Cc1cc(=O)[nH]c(SCCCOc2ccc(F)cc2)n1 | 0.957%
13 | CN1C(=O)C2(NCCc3c2[nH]c2ccccc32)c2ccccc21 (centres unmarked) | 14.5%
14 | COc1ccccc1-n1nc(C)c(-c2ccccc2)c1N | 6.76%
15 | O=c1c(Sc2ccccc2)c(C(F)(F)F)[nH]n1-c1ccccc1 | 19.8%
16 | COc1ccc(-n2c(=O)cc(N3CCc4ccccc43)[nH]c2=O)cc1 | 8.59%
17 | O=C(NC(=S)Nc1cccnc1Cl)c1ccc(F)cc1 | 11.5%
18 | COc1ccccc1NC(=S)NC(=O)CCc1ccccc1 | 1.35%
19 | N=C1C(c2ccccc2)=C(O)CN1NC(=O)c1ccc(Cl)cc1 | 12%
20 | CN(C)C(=O)Oc1ccc(Cl)c2ccccc12 | 8.36%
21 | O=C(N/N=C/c1ccncc1)C12CC3CC(CC(C3)C1)C2 | 7.3%
22 | COc1cc(-c2noc(CCCC(=O)NC3CCCCC3)n2)cc(OC)c1OC | -3.68%
23 | O=C(NNC(=O)c1cc(-c2ccccc2Cl)nc2ccccc12)c1csc(N2CCOCC2)n1 | 3.93%
24 | Cn1cc(Cl)cc(C(=O)Nc2ccccc2)c1=O | 10.5%

Row | SMILES | hERG current change (%, negative = inhibition) at 1uM
25 | Cc1nc2c(C(=O)NCc3cccs3)cnn2c(C)c1Cc1ccccc1 | 16.2%
26 | Cl.OC(COCc1ccc2c(c1)OCO2)CN1CCC(Cc2ccccc2)CC1 (centres unmarked) | -79.4%
27 | COc1ccc(C)cc1NC(=S)NN1CCN(C)CC1 | 22.7%
28 | Nc1nc(-c2ccccc2)c(N=Nc2cccnc2)s1 | 17.7%
29 | Cc1cc(C)n(/N=C/c2cccc(O)c2)c(=O)c1C(N)=O | 7.25%
30 | COc1cc(CC(=O)OCC(=O)NC2CCCCC2C)cc(OC)c1OC (centres unmarked) | 3.45%
31 | CCC1=C(C)CN(C(=O)NCCc2ccc(S(=O)(=O)NC(=O)NC3CCC(C)CC3)cc2)C1=O (centres unmarked) | 1.24%
32 | O=C(NC(=S)NCc1ccco1)c1ccc(Br)cc1 | 10.9%
33 | O=C(Nn1cnnc1)C(Sc1ccccc1)c1ccccc1 (centres unmarked) | 15%
34 | COc1cc(/C=C2/C(=O)N(c3ccc(C)c(C)c3)N=C2C)cc([N+](=O)[O-])c1O | 12.5%
35 | O=C(Oc1ccc(F)cc1C(=O)/C=C/c1cccs1)c1cccc([N+](=O)[O-])c1 | 10.1%
36 | COc1ccc(-c2cncnc2-c2ccc(OC)cc2O)cc1 | 11.2%
37 | COc1ccc(-c2ccc(SCC(=O)N3c4ccccc4CC3C)nn2)cc1OC (centres unmarked) | -5.58%
38 | COC(=O)c1ccc(NS(=O)(=O)c2cc3c4c(c2)C(C)C(=O)N4CCC3)cc1 (centres unmarked) | 2.47%
39 | COc1ccc(CSCCc2n[nH]c(=S)n2-c2ccccc2)cc1 | 8.77%
40 | CC(NC1=NCCS1)c1ccccc1 (centres unmarked) | 11.3%
41 | Cc1[nH]n(-c2ccccc2)c(=O)c1N=Nc1cccc(S(=O)(=O)N2CCOCC2)c1 | 3.31%
42 | CCCc1ccc(C(=O)NNC(=O)c2ccc(Br)cc2)cc1 | 11.6%
43 | CCc1ccc(N(CC)c2ncnc3nc[nH]c23)cc1 | 16.1%
44 | COc1ccc2c(c1)c(=O)c(C(=O)c1ccc(Cl)cc1)cn2CC(=O)Nc1ccc(F)cc1 | 14.8%
45 | O=C1CC(N2CCN(c3ccc(F)cc3)CC2)C(=O)N1Cc1ccccc1 (centres unmarked) | 5.56%
46 | O=C(NNC(=O)c1ccncc1)Nc1ccccc1 | 11.9%
47 | CCCC(=O)NCCCCNC(=O)CCC | 4.55%
48 | Cc1ccc(NCc2ccccc2O)c(C)c1 | 18%

Row | SMILES | hERG current change (%, negative = inhibition) at 1uM
49 | Cc1ccc(OCc2cc(C(=O)NC(C)Cc3cnccn3)no2)cc1C (centres unmarked) | 9.87%
50 | Cc1nn(C)c(C)c1Sc1ccc(Br)cc1 | 16.2%
51 | O=C(CC1C(=O)NCCN1CC1CCCCC1)NCCCN1CCOCC1 (centres unmarked) | 12.6%
52 | O=C(O)C(=O)O.OCc1ccccc1OCCCN1CCC(Cc2ccccc2)CC1 | -65.9%
53 | COc1ccc(NC(=O)C(c2ccccn2)N(C(C)=O)c2ccc(C)cc2)cc1 (centres unmarked) | 8.55%
54 | COc1ccc(-c2[nH]ncc2C=O)cc1OC | 2.96%
55 | O=C(Cn1c(NCCCCl)nc2ccccc21)c1ccccc1.[Cl-] | 3.88%
56 | CCOC(=O)c1nn(-c2ccccc2C)c2nc(Nc3ccccc3)cc(=O)n12 | -4.38%
57 | CN(C)/C=C/C(=O)c1ccccc1F | 4.57%
58 | CCCOc1cccc(C(=O)O)c1 | 7.34%
59 | CCOc1cccc(C(=O)N2CCCCC2c2cccnc2)c1 (centres unmarked) | -3.21%
60 | C/C(N)=C(/C#N)C(=O)COC(=O)c1ccc(C#N)cc1 | 3.74%
61 | O=C(CCNC(=O)c1ccc(Cl)cc1)NCCC1=CCCCC1 | 2.47%
62 | CCCC(C)C1(CC)C(=O)NC(=Nc2ccc(OC)cc2)NC1=O (centres unmarked) | 3.6%
63 | Cc1cc(OCC(=O)NC2CCCCC2)ccc1Cl | 8.91%
64 | O=C(NCc1cccnc1)c1cccc(C(F)(F)F)c1 | 13.5%
65 | N#C/C(=C/c1ccc2c(c1)OCO2)C(=O)NCCc1c[nH]c2ccccc12 | 9.7%
66 | Nc1ccc2nc(-c3cccnc3)[nH]c2c1 | 7.84%
67 | COc1nc2ccccc2nc1OC | 13.8%
68 | Cc1ccc(OC(=O)c2ccc(C)c([N+](=O)[O-])c2)cn1 | 14.3%
69 | COC(=O)c1ccc(-n2cncn2)c(F)c1 | 7.77%
70 | COc1ccccc1NC(=O)CN1CCOCC1 | 16.3%
71 | Cc1ccc(CSCC(=O)Nc2ccc3c(c2)OCO3)cc1 | -2.99%
72 | CC(=O)c1ccc(-c2ccc(C(=O)N3CCC(C(N)=O)CC3)o2)cc1 | -4.4%

Row | SMILES | hERG current change (%, negative = inhibition) at 1uM
73 | CC(=O)c1csc(COc2ccc(Cl)cc2)n1 | 10.8%
74 | O=C(O)c1cc(-c2ccncc2)nc2ccc(S(=O)(=O)N3CCOCC3)cc12 | 3.3%
75 | O=C(COC(=O)/C=C/c1cccc(C(F)(F)F)c1)NC1CCCCCC1 | 3.88%
76 | CCOc1cccc2sc(N(CCN(C)C)C(=O)/C=C/c3cccs3)nc12.Cl | 16.2%
77 | CCOCCn1cnc2sc(C(=O)NCC(=O)OCC)c(C)c2c1=O | 0.214%
78 | C=C(C)c1ccc(C(C)(C)NC(=O)NCc2ccco2)cc1 | -1.72%
79 | O=C(CN1CCN(Cc2ccccc2)CC1)N/N=C/C=C/c1ccccc1[N+](=O)[O-] | -32.1%
80 | CCC(C)(C)C1CCc2c(sc(NC(=O)c3cccs3)c2C(N)=O)C1 (centres unmarked) | 12.4%
81 | CCOC(=O)CN1CC23C=CC(O2)C(C(=O)NC2CCCC2)C3C1=O (centres unmarked) | 9.85%
82 | CCOc1ccc(CSC2=NCCN2)cc1Cl.Cl | -4.54%
83 | CC(C)SCC(=O)Nc1ncc2c(n1)-c1ccccc1CC2 | 11.5%
84 | COc1ccc(NC(=O)C(F)(F)F)cc1OC | 7.02%
85 | Cc1c(C=O)c2ccccn2c1C(=O)c1ccncc1 | 6.3%
86 | O=C(CC1SCCNC1=O)Nc1ccc(Cl)cc1 (centres unmarked) | 7.11%
87 | COc1ccc(C(=O)Cn2c(=O)oc3ccc(C)cc32)cc1 | 11.4%
88 | CCc1ccc(/C=C/C(=O)c2c(C)cc(C)[nH]c2=O)cc1 | 5.55%
89 | O=C(CCCCl)NC1=NN(c2ccccc2)C(=O)C1 | 1.49%
90 | CC(C)NC(=O)COC(=O)c1cncc(Br)c1 | 7.87%
91 | CCN1CCN(c2ccc(S(=O)(=O)N3CCCCC3)cc2NC(=O)c2cccc(C)c2[N+](=O)[O-])CC1 | 6.56%
92 | CC(C)NC(=O)CSc1nc(N)c(NC(=O)c2ccccc2F)c(=O)[nH]1 | 14.9%
93 | O=C(CN1C(=O)CCSc2ccccc21)Nc1ccc(F)cc1 | 1.34%
94 | COc1ccc(C2=CC(c3cc(OC)c(OC)c(OC)c3)NC(=S)N2)cc1 (centres unmarked) | 3.88%
95 | Cc1sc(NC(=O)C2CCCCC2C(=O)O)c(C(N)=O)c1-c1ccc(C(C)(C)C)cc1 (centres unmarked) | 7.43%
